Laboratory results from PubChem BioAssay AID504339 (National Center for Advancing Translational Sciences (NCATS), 2011).
In all, about 390,000 compounds went through this assay and about 17,000 (4.4%) were called active. The shares of active, inactive and inconclusive entries below differ from those in the screen. Calls come from the whole dose curve; as a rule, active = well fitted inhibition curve with a large enough effect; inconclusive = small, poorly fitted or top-dose-only effect; inactive = no such curve, though single readings can be large or run the other way. A potency beside an inconclusive call is a rough fit, not a confirmed value.

target: Lysine-specific demethylase 4A (Homo sapiens) (UniProt O75164); experiment: qHTS Assay for Inhibitors of JMJD2A-Tudor Domain; settings: AlphaScreen JMJD2A-Tudor / H3K4me3 peptide binding; series mostly up to 114 µM; note: nearly all actives have a fitted effect of over 50% in size
Chain of UniProt O75164 (O75164 whole entry, looked up, the tested form may be a part): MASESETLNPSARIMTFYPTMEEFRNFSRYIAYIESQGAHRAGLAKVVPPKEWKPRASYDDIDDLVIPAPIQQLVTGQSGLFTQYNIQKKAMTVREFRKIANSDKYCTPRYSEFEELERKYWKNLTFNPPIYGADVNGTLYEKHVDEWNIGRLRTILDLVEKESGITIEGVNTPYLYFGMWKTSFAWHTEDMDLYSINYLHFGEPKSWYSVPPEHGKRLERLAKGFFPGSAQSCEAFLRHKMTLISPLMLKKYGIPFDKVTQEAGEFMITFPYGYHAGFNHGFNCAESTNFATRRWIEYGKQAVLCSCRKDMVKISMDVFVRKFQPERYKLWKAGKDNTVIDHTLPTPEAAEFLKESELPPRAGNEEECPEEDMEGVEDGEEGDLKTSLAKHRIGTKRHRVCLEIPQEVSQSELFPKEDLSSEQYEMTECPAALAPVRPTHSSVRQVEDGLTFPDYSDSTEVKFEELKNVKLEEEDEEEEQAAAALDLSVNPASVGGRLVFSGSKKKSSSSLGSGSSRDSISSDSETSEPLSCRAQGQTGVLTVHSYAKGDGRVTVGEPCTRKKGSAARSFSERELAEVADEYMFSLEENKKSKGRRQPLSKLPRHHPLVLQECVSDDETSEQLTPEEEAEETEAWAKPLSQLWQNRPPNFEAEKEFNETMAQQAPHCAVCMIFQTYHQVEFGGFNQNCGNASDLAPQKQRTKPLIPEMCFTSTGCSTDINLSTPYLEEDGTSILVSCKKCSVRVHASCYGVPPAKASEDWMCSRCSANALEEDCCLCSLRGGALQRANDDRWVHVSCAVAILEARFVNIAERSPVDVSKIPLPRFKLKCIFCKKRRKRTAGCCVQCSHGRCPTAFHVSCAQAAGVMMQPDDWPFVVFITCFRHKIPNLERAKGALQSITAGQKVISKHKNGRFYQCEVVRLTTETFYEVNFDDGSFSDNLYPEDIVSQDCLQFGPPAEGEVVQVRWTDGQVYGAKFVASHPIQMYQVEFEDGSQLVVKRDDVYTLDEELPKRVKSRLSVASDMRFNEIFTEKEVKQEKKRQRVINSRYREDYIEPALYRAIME
Potency is the fitted concentration of half-maximal effect; tags give direction and shape of the fitted curve.

Compound	Potency
COc1cccc(CNC(=O)CCNS(=O)(=O)c2ccc3c(c2)CC(C)N3C(C)=O)c1 (stereo not drawn)	inconclusive: 25.1 µM [inhibitor, full curve]
Cc1ccc(N2C(=O)C3N=NN(CC(=O)N4N=C(c5ccccc5)CC4c4ccccc4)C3C2=O)cc1 (stereo not drawn)	inconclusive: 50.1 µM [inhibitor, partial curve]
Cc1ccc(-n2nc3c(c2NC(=O)c2c(-c4ccccc4Cl)noc2C)CSC3)cc1	inactive
C=C(C)C(=O)Nc1cccc(C2=NOC3(C2)C[C@H](C(N)=O)N(C(=O)CC)C3)c1 (stereo partly drawn)	active: 7.94 µM
CCC1C(=O)NCCN1C(=O)c1ccc(OC)c(OC2CCN(C(C)=O)CC2)c1 (stereo not drawn)	inactive
COc1cccc(C(=O)Oc2ccccc2/C=C\C(=O)c2cc3ccccc3o2)c1	inactive
COc1ccc(/C=C/C(=O)NCC(=O)N2CCC(N(C)CCN3CCOCC3)CC2)cc1OC	inconclusive: 70.8 µM [inhibitor, single point]
CN(C)CCCNc1cc(O)c2ncccc2c1	active: 35.5 µM
CCOC(=O)c1sc2nc3c(SCCC(=O)O)cc(C(=O)c4cc(OC)ccc4O)cn3c(=O)c2c1C	active: 14.1 µM
Cc1ccc(-c2nc3cnccn3c2Nc2ccc3c(c2)OCCO3)o1	inconclusive: 56.2 µM [inhibitor, partial curve]
CCC1C(=O)CC(c2ccc([N+](=O)[O-])cc2)NC1c1ccc([N+](=O)[O-])cc1 (stereo not drawn)	inconclusive: 15.8 µM [inhibitor, full curve, poor fit]
O=C(CSc1ccc(Cl)cc1)N1CCN(c2ccc([N+](=O)[O-])cc2Cl)CC1	inconclusive: 56.2 µM [inhibitor, partial curve]
Clc1ccccc1-c1ccc(CN2CCN(c3ccccc3)CC2)o1	inconclusive: 56.2 µM [inhibitor, partial curve, poor fit]
O=[N+]([O-])c1ccc(Cl)c(-c2ccc(/C=N/c3c(-c4ccco4)nc4ccccn34)o2)c1	inconclusive: 3.98 µM [inhibitor, full curve, poor fit]
O=[N+]([O-])c1ccccc1N/N=C/c1c[nH]c2ccccc12	active: 11.2 µM
COc1ccc(Nc2sc(C(=O)c3ccccc3)c(N)c2C(=O)Nc2cc(C)ccc2C)c(OC)c1	inconclusive: 50.1 µM [inhibitor, partial curve]
CCc1ccc(NC(=O)c2sc3nc(C)c(C(=O)Nc4ccc(C)cc4C)c(-c4ccco4)c3c2N)cc1	inactive
Cc1cccc(N(CC(=O)N=Nc2c(O)[nH]c3ccccc23)S(C)(=O)=O)c1C	inconclusive: 44.7 µM [inhibitor, partial curve]
OCCN1CCN(c2ncnc3c2c(-c2ccccc2)cn3-c2ccc(Br)cc2)CC1	active: 35.5 µM
CCCCNC(=O)C1CCN(Cc2ccc(OCc3ccccc3)cc2)CC1	active: 3.55 µM
CCCCn1c(O)c(N=Nc2ccccc2O)c2ccccc21	inconclusive: 39.8 µM [inhibitor, partial curve]
CC(=O)c1sc(NC(=O)CCCc2nc3ccccc3c(=O)[nH]2)nc1-c1ccccc1	inactive

Compound	Potency
COc1ccc(OC)c(CNC(=O)c2cc3ccc4cccnc4c3[nH]2)c1	inconclusive: 39.8 µM [inhibitor, partial curve]
CCOC(=O)C1(CCOC)CCN(C/C=C/c2ccccc2OC)CC1	inactive
Cc1ccsc1/C=N/NS(=O)(=O)c1ccc([N+](=O)[O-])cc1	inconclusive: 89.1 µM [inhibitor, single point]
CCN1CCN(c2ccc(S(=O)(=O)N3CCCCC3)cc2NC(=O)Cc2ccc(Cl)c(Cl)c2)CC1	inconclusive: 31.6 µM [inhibitor, partial curve]
NS(=O)(=O)c1ccc(CCNC(=O)C(=O)C2C(=O)Nc3ccccc32)cc1 (stereo not drawn)	inconclusive: 39.8 µM [inhibitor, single point]
COc1ccccc1-c1nnc(C2CCN(S(=O)(=O)c3ccccc3[N+](=O)[O-])CC2)o1	inactive
C/C(=N\NC(=S)Nc1ccc(C(C)C)cc1)c1ccc2c(c1)OCO2	inactive
CCc1ccc(-c2cc(C(=O)Nc3ccc(S(=O)(=O)NC(C)=O)cc3)c3ccccc3n2)cc1	inconclusive: 89.1 µM [inhibitor, single point]
C#CCOCCOCCOCCNc1nc(N2CCN(C(=O)C([C@@H](C)CC)n3cc(C(N)Cc4ccc(O)cc4)nn3)CC2)nc(N2CCN(C(=O)[C@H](CCC(=O)O)n3cc(C(N)CC(C)C)nn3)CC2)n1 (stereo partly drawn)	active: 56.2 µM
CC1=C(C(=O)Nc2ccccc2C(=O)NCCCOC(C)C)SCCO1	inactive
Cc1ccc(NC(=O)c2ccc(NC(=O)C3CCCC3)cc2)c(C)c1	inactive
O=C(NCCc1ccccc1)C1CCCN1C(=O)Nc1ccc(F)cc1 (stereo not drawn)	inconclusive: 28.2 µM [inhibitor, single point]
Nc1cccc(-c2nnc3n2CCCCC3)c1	inconclusive: 20 µM [inhibitor, partial curve]
CC1(C)CC(=O)C2=C(C1)Nc1ccccc1NC2c1ccc(F)c(F)c1 (stereo not drawn)	inconclusive: 39.8 µM [inhibitor, single point]
N#Cc1nc(Cc2cccc3ccccc23)oc1NCc1ccc(F)cc1	inconclusive: 79.4 µM [inhibitor, partial curve]
O=S(=O)(NCc1ccccn1)C(F)(F)F	active: 5.01 µM
Cc1nc(N/N=C\c2ccc3c(c2)OCO3)sc1C	inconclusive: 89.1 µM [inhibitor, single point]
COc1ccc(-c2nnc(SCC(=O)N3CCCC3)o2)c(OC)c1	inactive
Cc1cc(C(=O)NC(=S)Nc2ccccc2N2CCOCC2)ccc1[N+](=O)[O-]	inconclusive: 20 µM [inhibitor, single point]
Cc1ccc2[nH]c(=O)c(CN(CCO)Cc3nnnn3Cc3ccccc3)cc2c1	inconclusive: 39.8 µM [inhibitor, single point]
COc1ccc(CCn2c(=N)c(C(=O)NCc3ccco3)cc3c(=O)n4ccccc4nc32)cc1OC	inconclusive: 89.1 µM [inhibitor, single point]
